Experimental data as given in PubChem BioAssay AID1468 (National Center for Advancing Translational Sciences (NCATS), 2008).
About 1,100 (0.39%) of roughly 280,000 compounds were called active. The shares of active, inactive and inconclusive entries below differ from those in the screen. Calls follow the shape of the dose curve; as a rule, active = well fitted inhibition curve with a large enough effect; inconclusive = small, poorly fitted or top-dose-only effect, or effect the other way; inactive = flat fitted curve, though single readings scatter. No potency is given beside an inconclusive call; the fits are too rough.

Target: Microtubule-associated protein tau (Homo sapiens) (UniProt P10636)
Sequence of UniProt P10636 (P10636 whole entry, looked up): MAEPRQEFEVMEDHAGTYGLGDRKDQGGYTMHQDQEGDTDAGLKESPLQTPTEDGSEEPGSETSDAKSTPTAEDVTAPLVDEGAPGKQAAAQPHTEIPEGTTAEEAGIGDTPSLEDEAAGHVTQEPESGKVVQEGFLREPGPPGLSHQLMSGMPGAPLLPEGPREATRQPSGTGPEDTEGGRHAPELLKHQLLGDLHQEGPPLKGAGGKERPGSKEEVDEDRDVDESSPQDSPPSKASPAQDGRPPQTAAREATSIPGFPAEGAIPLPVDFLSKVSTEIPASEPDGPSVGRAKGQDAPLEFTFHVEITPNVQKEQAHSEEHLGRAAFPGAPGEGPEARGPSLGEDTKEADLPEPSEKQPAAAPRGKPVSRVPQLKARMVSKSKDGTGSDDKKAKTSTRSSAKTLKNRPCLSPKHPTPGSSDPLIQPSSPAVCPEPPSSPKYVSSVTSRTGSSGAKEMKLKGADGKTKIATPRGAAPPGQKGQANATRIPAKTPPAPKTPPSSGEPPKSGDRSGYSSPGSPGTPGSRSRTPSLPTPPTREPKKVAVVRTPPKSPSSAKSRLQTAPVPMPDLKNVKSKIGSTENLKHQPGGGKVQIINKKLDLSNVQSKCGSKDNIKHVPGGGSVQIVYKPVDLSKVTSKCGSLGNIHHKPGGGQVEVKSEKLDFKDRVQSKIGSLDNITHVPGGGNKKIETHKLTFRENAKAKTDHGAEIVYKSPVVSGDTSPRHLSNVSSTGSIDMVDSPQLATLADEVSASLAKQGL
Experiment: qHTS for Inhibitors of Tau Fibril Formation, Fluorescence Polarization; also: nearly all actives have a fitted effect of over 55% in size
Conditions: K18 P301L tau heparin fibrillization, Alexa594 FP, 6 h; series mostly up to 57.7 µM
Procedure, shortened: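 Human tau K18 […] P301L fragment, 15 uM unlabeled plus 0.24 uM Alexa 594-labeled tau (final), with compound and 20 uM heparin in 100 mM sodium acetate pH 7; 6 hr at 37 C, then Alexa 594 FP read.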
% is scaled to controls: 0 for no effect and ±100 for the full control effect; potency is read from the fitted curve at half-maximal effect; tags tell the direction and shape of the fitted curve.

| SMILES | Potency | activity, negative = inhibition |
| --- | --- | --- |
| CN(Cc1ccccc1)Cc1ccccc1OC(=O)N(C)C | inactive |  |
| CC(=O)Nc1ccc(C(=O)OCC(=O)Nc2ccc(Cl)cc2C(=O)c2ccccc2)cc1 | inconclusive [inhibitor, partial curve] |  |
| O=C1NC(=O)N(CCC2=CCCCC2)C(=O)/C1=C/c1cccs1 | inactive |  |
| ClC1=C(Cl)C(Cl)=C(Cl)C1=C/C=C/c1ccccc1 | inconclusive [inhibitor, single point] |  |
| NC(=O)C1CCN(/C=C2\C(=O)NC(=O)N(Cc3ccco3)C2=O)CC1 | inconclusive [inhibitor, single point] |  |
| CC(=O)Oc1c2c(c(CC=C(C)C)c3c1C(=O)C1=CC4CC5C(C)(C)OC(C/C=C(\C)C(=O)O)(C4=O)[C@]15O3)OC(C)(CCC=C(C)C)C=C2 (stereo partly specified) | active: 10 µM |  |
| CCOC(=O)C(O)(c1ccc(NC(=O)c2ccc(Cl)c(Cl)c2)cc1)C(F)(F)F (stereo unspecified) | inconclusive [inhibitor, partial curve] |  |
| O=C(Cc1ccccc1)N1CCN(C2CCCC2)CC1 | inactive |  |
| COc1ccc(-n2c(C)cc(C(=O)C[N+]34CCN(CC3)CC4)c2C)cc1 | inactive |  |
| Fc1ccc2c(c1)nnn2C1CCN(Cc2nnnn2C2CCCCC2)CC1 | inactive |  |
| O=c1[nH]c(CN2CC=C(c3ccccc3)CC2)nc2scc(-c3cccs3)c12 | inconclusive [inhibitor, single point] |  |
| CC(=O)c1ccc(OC(C)C)c(Cc2c(O)[nH]c(=S)[nH]c2=O)c1 | inconclusive [inhibitor, partial curve] |  |
| CN(C)C1C(=O)C(C(N)=O)C(=O)C2(O)C(=O)C3C(=O)c4c(O)cccc4C(C)(O)C3C(O)C12 (stereo unspecified) | active: 20 µM |  |
| CCc1ccccc1N1C(=O)N(Cc2ccccc2C)c2ccccc2S1(=O)=O | inconclusive [inhibitor, single point] |  |
| Cc1ccc(Nc2nnc(-c3ccc(C)c(S(=O)(=O)NCc4nc5ccccc5[nH]4)c3)c3ccccc23)cc1 | inconclusive [inhibitor, single point] |  |
| Cc1ccc(-c2nnc(Nc3ccc(O)cc3)c3ccccc23)cc1S(=O)(=O)N1CCOCC1 | inconclusive [activator, full curve, poor fit] |  |
| Nc1c(C(=O)OCc2ccccc2)c2nc3ccccc3nc2n1Cc1cccs1 | inconclusive [inhibitor, partial curve] |  |
| O=C1NC(=O)N(c2ccccc2)C(=O)/C1=C/c1ccc([N+](=O)[O-])s1 | inconclusive [inhibitor, single point] |  |
| O=C1NC(=O)C2(Cc3ccccc3N3CCCC32)C(=O)N1c1ccc(Cl)cc1 (stereo unspecified) | inconclusive [inhibitor, partial curve, poor fit] |  |
| C=C1CC[C@H](O)C/C1=C/C=C1\CCC[C@]2(C)[C@@H]([C@H](C)CCCC(C)C)CC[C@@H]12 | inconclusive [inhibitor, partial curve] |  |
| CC1(C)CC(=O)C2=C(C1)OC(N)=C([N+](=O)[O-])C2c1ccc(C#N)s1 (stereo unspecified) | inconclusive [inhibitor, partial curve] |  |
| CN1CC[C@@]2(C)c3cc(OC(=O)Nc4ccccc4)ccc3N(C)[C@@H]12 | inconclusive [inhibitor, partial curve] |  |

| SMILES | Potency | activity, negative = inhibition |
| --- | --- | --- |
| Cc1nc2ccccc2c(=O)n1-c1ccc(Cl)cc1[N+](=O)[O-] | inconclusive [inhibitor, full curve, poor fit] |  |
| CCN(CC)c1ccc(CN(C)CCc2ccc(OC)c(OC)c2)cc1 | inactive |  |
| CC(=O)Oc1ccc(Cl)c2cccnc12 | inactive |  |
| CCCCCCCCCCCCn1ccc(=N)cc1 | inconclusive [activator, single point] |  |
| CCCCCCCCCCCCC/C=C/[C@@H](O)[C@@H](N)COP(=O)([O-])OCC[N+](C)(C)C | inactive |  |
| Cc1cc(CN(C)C)c(OC(=O)N(C)C)cc1C | inactive |  |
| CC(C)(C)OC(=O)N1CC[C@H]1COc1cnc[c]([Sn]([CH3])([CH3])[CH3])c1 |  | inactive: 0.146% [at 11.6 µM] |
| CCCCN(CC)c1c([N+](=O)[O-])cc(C(F)(F)F)cc1[N+](=O)[O-] | inconclusive [inhibitor, partial curve, poor fit] |  |
| NS(=O)(=O)c1cc(C2(O)NC(=O)c3ccccc32)ccc1Cl (stereo unspecified) | inconclusive [inhibitor, partial curve] |  |
| CC12CN3CC(C)(CN(C1)P3(=O)Oc1ccccc1)C2=O (stereo unspecified) | inactive |  |
| C=CCN1C(=O)NC(=O)/C(=C/c2ccc(N(C)C)c(Br)c2)C1=O | inconclusive [inhibitor, partial curve] |  |
| CCOC(=O)c1ccc(N2CCN(c3ccccc3F)CC2)c(NC(=O)Nc2ccc(Cl)c(Cl)c2)c1 | inconclusive [inhibitor, partial curve, poor fit] |  |
| CCNC(=O)N1c2ccccc2Sc2ccccc21 | inconclusive [inhibitor, single point] |  |
| O=C1NC(=O)C(=Cc2ccc3c(c2)OCO3)C(=O)N1 | inconclusive [inhibitor, full curve, poor fit] |  |
| O=C(Nc1ccc2nc(SCC(=O)N3CCCc4ccccc43)sc2c1)c1cccc(F)c1 | inconclusive [inhibitor, partial curve] |  |
| O=C1NC(=O)N(Cc2ccccc2)C(=O)/C1=C/C=C/c1ccco1 | inconclusive [inhibitor, partial curve] |  |
| Cn1c(=O)c2c(ncn2CCCl)n(C)c1=O | inconclusive [inhibitor, full curve, poor fit] |  |
| CNC(C(=O)c1ccccc1)C(OC(C)=O)c1cccc([N+](=O)[O-])c1 (stereo unspecified) | inactive |  |
| Cc1ccc(S(=O)(=O)N[C@@H](CCCCN)C(=O)CCl)cc1 | inactive |  |
| Nc1c(C(=O)Nc2ccc(F)c(Cl)c2)sc2nc3c(cc12)N1CCC3CC1 | inactive |  |
| CCN1C(=O)c2ccccc2Sc2ccc(NC(=O)Nc3ccc(Br)c(C)c3)cc21 | active: 15.8 µM |  |
| O=c1[nH]c(=S)n(C2CC2)c(O)c1/C=N/Nc1cccc2ccccc12 | inconclusive [inhibitor, partial curve] |  |

| SMILES | Potency | activity, negative = inhibition |
| --- | --- | --- |
| COc1ccc(/C=C2\C(=O)NC(=S)N(C)C2=O)cc1C | inactive |  |
| CCCCC/C=C\C/C=C\C/C=C\C/C=C\CCCC(=O)Nc1ccc(O)cc1 | inconclusive [activator, partial curve, poor fit] |  |
| CN(C)c1ccc(/C=C/C=C/c2sc3ccccc3[n+]2C)cc1 | inconclusive [inhibitor, partial curve] |  |
| COc1ccc(N2C(=O)NC(=O)/C(=C/c3cccc(OC(=O)c4cccs4)c3)C2=O)cc1Cl | inconclusive [inhibitor, partial curve] |  |
| CC(C)(O)[C@H]1O[C@@H]2CC[C@]3(C)[C@@]4(C)c5[nH]c6ccccc6c5C[C@@H]4CC[C@]3(O)C2=CC1=O | inconclusive [activator, partial curve, poor fit] |  |
| O=c1cccc2n1CC1CC2CN(CCO)C1 (stereo unspecified) | inactive |  |
| Nc1ccc(N)cc1 | inconclusive [inhibitor, partial curve] |  |
| Cc1cccc(C)c1NC1=NCCCS1 | inconclusive [inhibitor, full curve, poor fit] |  |
| O=C(Nc1ccon1)c1cccn(Cc2cccc([N+](=O)[O-])c2)c1=O | inactive |  |
| CCOC(=O)C1=C(C)OC(N)=C(C(=O)OC)C12C(=O)Nc1ccc(Br)cc12 (stereo unspecified) | inconclusive [inhibitor, partial curve, poor fit] |  |
| S=c1[nH]nc(C2CC2)n1Cc1ccccc1 | inconclusive [inhibitor, full curve, poor fit] |  |
| CCOC(=O)c1c(/N=C/C2C(=O)NC(=S)NC2=O)sc(C)c1C | inactive |  |
| Cc1cc(C=C2C(=O)N(C)C(=O)N(C)C2=O)c(C)n1-c1ccccc1 | inconclusive [inhibitor, single point] |  |
| CCCCNC(=O)Oc1c(Br)cc2sc(=O)oc2c1Br | inconclusive [inhibitor, partial curve] |  |
| CN1C2CCC1CC(OC(c1ccccc1)c1ccccc1N)C2 (stereo unspecified) | inconclusive [inhibitor, single point] |  |
| O=C(CSC1c2ccccc2-c2ccccc21)N/N=C/c1ccccc1O | inactive |  |
| N#Cc1ccc(OCC(=O)N2CCN(Cc3ccc4c(c3)OCO4)CC2)cc1 | inconclusive [inhibitor, single point] |  |
| O=C1NC(=O)N(c2ccccc2)C(=O)/C1=C\c1ccc([N+](=O)[O-])s1 | inconclusive [inhibitor, single point] |  |
| Cc1noc(C)c1CSc1nc2cc(S(=O)(=O)N3CCOCC3)ccc2o1 | inconclusive [inhibitor, single point] |  |
| CC(C)NS(=O)(=O)c1ccc(OCC(=O)N2CCN(Cc3ccccc3)CC2)c(Cl)c1 | inactive |  |
| C[C@@H](CO)NC(=O)[C@@H]1C=C2c3cccc4[nH]cc(c34)C[C@H]2N(C)C1 | inconclusive [inhibitor, single point] |  |
| CCOC(=O)C1=C(C)OC(N)=C(C(=O)OCC)[C@@]12C(=O)N(CC(N)=O)c1ccccc12 | inconclusive [inhibitor, single point] |  |
